{
  "source": "ChEMBL document CHEMBL4888484",
  "about": "“Replenishing the malaria drug discovery pipeline: Screening and hit evaluation of the MMV Hit Generation Library 1 (HGL1) against asexual blood stage Plasmodium falciparum ,using a nano luciferase reporter read-out” (2022)",
  "note": "Out of some 150,000 compounds screened, about 540 (0.36%) showed an effect of 50% or more. This is one part of the list.",
  "data": [
    {"tested_on": "Plasmodium falciparum", "test": "Primary screen in NF54 nanoGlo assay, in single point, at 2uM, 72h; a lower Z score goes with more inhibition", "format": "functional, Erythrocyte", "conditions": "timepoint 72 hour", "units": {"% Inhibition": "%"}, "values": [
      {"smiles": "O=C(Nc1cnc2c(c1)CNC2=O)N[C@@H]1COC2(CCC2)C1", "% Inhibition": -3, "Z score": 0.41},
      {"smiles": "Cc1cccc(CN2CCN3CCN(C(=O)NCc4ccccc4)CC[C@H]3C2=O)c1", "% Inhibition": -11, "Z score": 1.48},
      {"smiles": "Cc1cnc(CCNC(=O)c2cccnc2)n1C(C)C", "% Inhibition": -9, "Z score": 0.98},
      {"smiles": "O=C(c1cc(-c2cccnc2)nc2ccccc12)N1CCN(Cc2ccncc2)CC1", "% Inhibition": -22, "Z score": 1.98},
      {"smiles": "Cc1noc2ncnc(N3CCC(C)(C)S(=O)(=O)CC3)c12", "% Inhibition": -9, "Z score": 1.42},
      {"smiles": "Cc1n[nH]cc1CNCCc1ccccn1", "% Inhibition": 0, "Z score": 0.03},
      {"smiles": "O=C1CN(Cc2cc(CN3CCCC3)cs2)CCN1Cc1ccccc1F", "% Inhibition": 2, "Z score": -0.3},
      {"smiles": "CC(C)(CNC(=O)C[C@@H]1C(=O)Nc2c(F)cccc21)C1CCC1", "% Inhibition": 8, "Z score": -0.99},
      {"smiles": "CCOc1cc(C2N(c3ccc(C)cc3)CCN2c2ccc(C)cc2)ccc1OCc1ccc(F)cc1", "% Inhibition": -4, "Z score": 0.57},
      {"smiles": "Cn1nccc1C(=O)N1CC[C@H](c2nc(-c3ccccc3)no2)C1", "% Inhibition": -11, "Z score": 1.37},
      {"smiles": "COc1cnccc1[C@H](C)NCc1nc2ccccc2s1", "% Inhibition": 1, "Z score": -0.19},
      {"smiles": "O=C(NC1CC1)[C@H]1CCCN(CC(=O)N2CCCCC2)C1", "% Inhibition": 0, "Z score": 0.03},
      {"smiles": "O=C(Nc1nc2c(s1)CN(C(=O)c1cnn(-c3ccccc3)n1)CC2)[C@@H]1CCCO1", "% Inhibition": -21, "Z score": 3.41},
      {"smiles": "CCC(Oc1ccc2c(c1)C(c1ccccc1)N(C(=O)C1CCCC1)CC2)C(=O)NC1CC1", "note": "(stereo not given)", "% Inhibition": -6, "Z score": 0.75},
      {"smiles": "O=C(O)C1CCC(C(=O)Nc2cccc3[nH]ccc23)CC1", "note": "(stereo not given)", "% Inhibition": 4, "Z score": -0.59},
      {"smiles": "C[C@H](O)c1cccc(N2CCC(CC3CC3)(C(=O)O)CC2)n1", "% Inhibition": -1, "Z score": 0.14},
      {"smiles": "Cc1nnc(NC(=O)NCc2ccccc2CN2CCCCC2)s1", "% Inhibition": 12, "Z score": -1.49},
      {"smiles": "Cc1nc(-c2cccc(CNC(=O)CC[C@H]3CCCO3)c2)cs1", "% Inhibition": 3, "Z score": -0.44},
      {"smiles": "Cc1cc(C(=O)NC2CCN(C)C2c2ccc(F)c(F)c2)c(C)n1-c1nccs1", "note": "(stereo not given)", "% Inhibition": -16, "Z score": 1.66},
      {"smiles": "Cc1nn(C)c(C)c1NC(=O)[C@@H]1CCCc2ccccc21", "% Inhibition": 6, "Z score": -0.79},
      {"smiles": "CCn1cncc1-c1nc2c(cnn2Cc2ccncc2)[nH]1", "% Inhibition": -20, "Z score": 2.53},
      {"smiles": "CCC(=O)N1CCCN(c2cc(=O)n(C(C)C)c(=O)n2C(C)C)CC1", "% Inhibition": -4, "Z score": 0.59},
      {"smiles": "COc1cccc(C(=O)N2CC(F)(F)C[C@H]2c2nc(C)no2)c1OC", "% Inhibition": -3, "Z score": 0.56},
      {"smiles": "O=C([C@H]1CCc2nncn2C1)N1CC(c2cccc(Cl)c2)C1", "% Inhibition": -8, "Z score": 0.77},
      {"smiles": "COCC(=O)N1CCC(Cc2n[nH]c(=O)n2-c2ccccc2F)CC1", "% Inhibition": -9, "Z score": 1.63},
      {"smiles": "Cc1cc(CC(C)C)nc(N2CC[C@H](NCCc3ncnn3C)C2)n1", "% Inhibition": -7, "Z score": 1.41},
      {"smiles": "Cn1nc(CNC(=O)C2CCCCC2)c2c1CCCC2", "% Inhibition": -7, "Z score": 1.38},
      {"smiles": "COc1ccccc1CC(C)(C)NC(=O)[C@@H]1CCCc2nn(C)cc21", "% Inhibition": -2, "Z score": 0.27},
      {"smiles": "Cc1n[nH]c([C@H]2CCN(Cc3cc(Cl)ccc3F)C[C@H]2N(C)C)n1", "% Inhibition": -2, "Z score": 0.31},
      {"smiles": "O=C(Cc1cc(F)c(F)cc1F)N1CCCC[C@H]1c1ncon1", "% Inhibition": -2, "Z score": 0.22},
      {"smiles": "CN(CCn1cccn1)C(=O)NCCc1ccccc1C(F)(F)F", "% Inhibition": -1, "Z score": 0.16},
      {"smiles": "COC(=O)N1CCN(C(=O)C2CCCC2)CC1", "% Inhibition": -8, "Z score": 1.1},
      {"smiles": "COc1ccc(C(=O)N2C[C@@H]3C[C@H]2C[C@@H]3NC(=O)c2ccccc2)cc1F", "% Inhibition": 39, "Z score": -4.44},
      {"smiles": "O=C(Nc1n[nH]c2ccc(F)cc12)[C@H]1OCC[C@H]1Cn1cccn1", "% Inhibition": -2, "Z score": 0.29},
      {"smiles": "Cc1nn(C)cc1[C@H](C)NCc1c(C(=O)N2CCCCCCC2)nc2ccc(Cl)cn12", "% Inhibition": 14, "Z score": -2.56},
      {"smiles": "CC(C)c1nccc(NC[C@]2(CO)COCCN2C)n1", "% Inhibition": -7, "Z score": 1.41},
      {"smiles": "CCC1(Cn2cc(C(=O)N[C@@H]3CCC[C@@H]3n3ccnc3)nn2)COC1", "% Inhibition": -14, "Z score": 2.18},
      {"smiles": "COc1ccc(Cl)cc1S(N)(=O)=O", "% Inhibition": -3, "Z score": 0.66},
      {"smiles": "CCn1cc(C)c(C(=O)O)c1CC(=O)Nc1cccc(C)c1C", "% Inhibition": -14, "Z score": 1.84},
      {"smiles": "Cc1cccnc1C[C@H](C)n1cc(-c2c(C)n(C)n(-c3ccccc3)c2=O)nn1", "% Inhibition": -20, "Z score": 1.86},
      {"smiles": "Cc1noc(-c2ccc(OC(F)(F)F)cc2)c1C(=O)NCCc1ccc(N)cc1", "% Inhibition": -1, "Z score": 0.2},
      {"smiles": "Cc1ccc(-c2cc(-c3ccc(O)c(Cl)c3)c(C#N)c(N)n2)nc1", "% Inhibition": -3, "Z score": 0.38},
      {"smiles": "O=C(NS(=O)(=O)CC1CCCCC1)c1csc(Cl)c1", "% Inhibition": -10, "Z score": 1.33},
      {"smiles": "CCC(=O)N1CCC(Nc2ccc(F)cc2OC2CCCC2)CC1", "% Inhibition": 2, "Z score": -0.28},
      {"smiles": "O=C(c1cc(O)nc2ccccc12)N1CC[C@H](Oc2ncccc2Br)C1", "% Inhibition": -12, "Z score": 2.33},
      {"smiles": "CCN(CC)S(=O)(=O)c1cc(C(=O)NCc2ccncc2)n(C)c1", "% Inhibition": -8, "Z score": 1.06},
      {"smiles": "Cc1ncc(CNc2ccc(Oc3nc(C(C)(C)C)ns3)c(Cl)c2)o1", "% Inhibition": -11, "Z score": 1.8},
      {"smiles": "COCCc1noc(-c2cnc(OC)nc2C)n1", "% Inhibition": -4, "Z score": 0.46},
      {"smiles": "COc1ccc(Cl)cc1-n1cnc2cc(C(=O)N3CCCCC3)ccc2c1=O", "% Inhibition": -16, "Z score": 2.85},
      {"smiles": "CC(C)(C)OC(=O)NCc1ccccc1N", "% Inhibition": 0, "Z score": 0.04},
      {"smiles": "Cc1nonc1CC(=O)N1CCC(c2nnc(Cn3cccn3)n2C)CC1", "% Inhibition": -7, "Z score": 1.48},
      {"smiles": "CCCn1cc(CN2CCS(=O)(=O)CC2)c(C)n1", "% Inhibition": -4, "Z score": 0.75},
      {"smiles": "C[C@@H](CCc1ccc(Br)cc1)NC(=O)CCn1cncn1", "% Inhibition": -6, "Z score": 0.88},
      {"smiles": "Cc1nc(Cn2cccc2C(=O)Nc2ccc(Cl)cc2F)no1", "% Inhibition": -17, "Z score": 2.52},
      {"smiles": "CC(C)C(=O)N(Cc1ccc(F)cc1)Cc1ccc(OS(=O)(=O)c2cccc(C(F)(F)F)c2)cc1", "% Inhibition": -11, "Z score": 0.97},
      {"smiles": "COC1([C@H](C)NC(=O)Cc2cccc(OC(C)C)c2)CCOCC1", "% Inhibition": 0, "Z score": -0.05},
      {"smiles": "O=C(Nc1cccnc1O)c1nc(C2CC2)n(-c2ccccc2)n1", "% Inhibition": 33, "Z score": -3.76},
      {"smiles": "O=C(NCC1(O)CCOCC1)C(=O)Nc1ccccc1C(F)(F)F", "% Inhibition": 3, "Z score": -0.36},
      {"smiles": "CCCc1nnc(N2CC[C@@]3(CCCN(C4CCCCC4)C3=O)C2)s1", "% Inhibition": -6, "Z score": 0.87},
      {"smiles": "Cc1cc(C)n(-c2ccc(=O)n(CC3CN(c4cc(=O)n5ccccc5n4)C3)n2)n1", "% Inhibition": -20, "Z score": 2.98},
      {"smiles": "C=CCNC(=O)NCCOc1ccc(S(C)(=O)=O)cc1", "% Inhibition": -19, "Z score": 1.72},
      {"smiles": "COc1ccc(C(=O)NCc2cccnc2-n2ccnc2)cc1", "% Inhibition": 6, "Z score": -0.7},
      {"smiles": "O=C(c1ccc(Cl)cc1)N1CCCN(c2cc(Oc3ccc(F)c(Cl)c3)ncn2)CC1", "% Inhibition": -13, "Z score": 1.25},
      {"smiles": "Cc1noc(C)c1CN1CC[C@H](NC(=O)c2cccc(Cl)c2)[C@@H](O)C1", "% Inhibition": -6, "Z score": 1.12},
      {"smiles": "O=C1C2CC=CCC2C(=O)N1Cc1coc(-c2ccc(F)cc2)n1", "note": "(stereo not given)", "% Inhibition": -11, "Z score": 1.52},
      {"smiles": "Cc1cccc(CN2CCC(N3CCC[C@H](C(=O)N4CCCC4)C3)CC2)c1", "% Inhibition": 6, "Z score": -1.14},
      {"smiles": "Cc1ccc(CC(=O)NCCc2nc3cccnc3n2C)cc1", "% Inhibition": 10, "Z score": -1.15},
      {"smiles": "COc1ccc(S(=O)(=O)Oc2cc(CN(CC3CC3)C(=O)Nc3ccccc3OC)ccc2OC)cc1", "% Inhibition": -1, "Z score": 0.14},
      {"smiles": "O=C1CC[C@@]2(CCCO2)CCN1Cc1cscn1", "% Inhibition": -1, "Z score": 0.19},
      {"smiles": "CC(C)(CC1CCOCC1)C(=O)N1CCCCC1", "% Inhibition": -12, "Z score": 1.57},
      {"smiles": "Cc1nc(NC(C2CCC2)C2CCC2)nc(N(C)C)n1", "% Inhibition": -3, "Z score": 0.49},
      {"smiles": "O=C(NCc1ccc[nH]1)C1CCCCC1", "% Inhibition": 10, "Z score": -1.3},
      {"smiles": "O=C(NCc1ccccc1)c1c(OCC2CC2)cc(=O)n2c1CCOCC2", "% Inhibition": -2, "Z score": 0.27},
      {"smiles": "O=C(CNC(=O)c1ccc(N2CCCC2)c(F)c1)NC1CCCCC1", "% Inhibition": -2, "Z score": 0.31},
      {"smiles": "Cc1cc(C)cc(N2CCC(N3CCN4CCNC(=O)[C@@H]4C3)CC2)c1", "% Inhibition": 0, "Z score": -0.02},
      {"smiles": "Cc1cccc(N2CCN(C(=O)c3cn4c(n3)COCC4)CC2)c1C", "% Inhibition": -8, "Z score": 1.36},
      {"smiles": "CS(=O)(=O)c1ccc(C(=O)Nc2ccccc2C(=O)Nc2ccc3c(c2)OCCO3)cc1", "% Inhibition": -1, "Z score": 0.26},
      {"smiles": "N#Cc1ncn(CC(=O)NCCc2cccc(Cl)c2Cl)c1C#N", "% Inhibition": -12, "Z score": 2.12},
      {"smiles": "O=C(c1ccn2nnnc2c1)N1C[C@@H]2CC[C@H]1CN(c1ncccn1)C2", "% Inhibition": -14, "Z score": 1.36},
      {"smiles": "COc1cc(-n2cnnn2)ccc1NC(=O)c1cnc2ccccc2n1", "% Inhibition": 10, "Z score": -1.31},
      {"smiles": "CC1CN(Cc2ccccc2)CC2(CCN(C(=O)C(C)O)CC2)O1", "note": "(stereo not given)", "% Inhibition": -6, "Z score": 1.02},
      {"smiles": "OC1(Cn2cc(-c3ccncc3)cn2)CCC1", "% Inhibition": 1, "Z score": -0.12},
      {"smiles": "CC(=O)c1ccc(=O)n(CC[C@H]2CCCO2)n1", "% Inhibition": -5, "Z score": 0.85},
      {"smiles": "c1ccc(N2CCN(Cc3nc(-c4cccs4)no3)CC2)cc1", "% Inhibition": 11, "Z score": -1.88},
      {"smiles": "CN(C)[C@H]1CCN(C(=O)c2ccc(Cl)cc2O)C[C@H]1CCC(=O)O", "% Inhibition": -4, "Z score": 0.4}
    ]}
  ]
}
